Screen size: about 44,000 compounds; about 340 (0.77%) were called active. Roughly 5% stayed inconclusive and do not appear here. The call rests on the fitted dose curve; in most records, active means well fitted inhibition curve with a large enough effect; inconclusive means small, poorly fitted or top-dose-only effect; inactive means flat fitted curve, though single readings scatter. The list shows a part of the results.
assay: Acumen qHTS Assay for Inhibitors of the mTORC1 Signaling Pathway in MEF (Tsc2-/-, p53-/-) Cells: Sytravon; conditions: phospho-rpS6 immunofluorescence/PI, 24 h; series mostly up to 38.3 µM; activity change, negative = inhibition: at the top concentration;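 further: plate controls were DMSO for no effect and rapamycin for full effect; nearly all actives have a fitted effect of over 50% in size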
Outline: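 Cell-based qHTS: Tsc2-/- p53-/- MEF, 24 h cpd, 37 °C; fix/perm, anti-phospho-S6 Alexa-488 + PI; Acumen 488 nm scan; pS6/PI ratio, % positive cells; rapamycin 7.5 nM = inhibition ref; PI count = viability.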

Activity change, negative = inhibition, inactive:
COc1ccc(N(Cc2cccs2)C(=O)c2ccc(C(C)(C)C)cc2)cc1 -1.68%
O=C(NCC(c1ccc2c(c1)OCO2)N1CCOCC1)C(=O)Nc1ccc(F)cc1F (stereo unspecified) -4.45%
O=C(Cn1cnc2c(oc3ccccc32)c1=O)Nc1ccc(OC(F)(F)F)cc1 -0.757%
O=C(Nc1cccc(Cl)c1)N1CCC(CN2CCOCC2)CC1 0.192%
O=C(CN1C(=O)CC(c2ccco2)Sc2ccccc21)Nc1ccc(C(F)(F)F)cc1 (stereo unspecified) 0.107%
CC(C)(C)c1ccc(S(=O)(=O)c2cn(CC(=O)Nc3ccccc3)c3ccccc3c2=O)cc1 -0.512%
Cc1cccc(CCNC(=O)c2cnc3c(C)cccn3c2=O)c1 4.3%
Cc1ccc(CNC(=O)c2ccc3c(c2)N(Cc2ccccc2)C(=O)c2ccccc2S3(=O)=O)cc1 -11.7%
COc1ccccc1CNC(=O)Cc1csc2nc(-c3ccccc3)cn12 0%
O=C(CCC1N=C2c3ccccc3N=C(SCc3ccccc3F)N2C1=O)NCCc1ccccc1 (stereo unspecified) 3.34%
Cc1cc(C)c(NC(=O)Cn2ccn(-c3cccc(Cl)c3)c(=O)c2=O)c(C)c1 -1.31%
COC(=O)C1CCN(CC(=O)Nc2cc(C)c3c(=O)oc4ccccc4c3n2)CC1 -7.68%
COc1ccc(N(C(=O)c2cccc(C)c2)S(=O)(=O)c2ccc(C)cc2)cc1 3.49%
O=C(Nc1nnc(S(=O)(=O)N2CCCc3ccccc32)s1)c1cccc(F)c1 0.153%
Cc1ccc2c(c1)N(C(=O)C1CCN(S(=O)(=O)c3c(C)noc3/C=C/c3ccccc3F)CC1)CCO2 -3.65%
CCn1c(SCc2ccc(F)cc2Cl)nnc1-c1nonc1NC(C)=O -2.92%
CCOC(=O)c1ccc(NC(=O)c2c(C)nn(-c3ccc(F)cc3)c2-n2cccc2)cc1 0.332%
COc1ccc(CNC(=O)CCNS(=O)(=O)c2cccc3nsnc23)cc1 -12.3%
Fc1ccc(-n2ncc3c(N4CCC(Cc5ccccc5)CC4)ncnc32)cc1 3.05%
CCOc1ccccc1CNC(=O)c1ccc(NC(=O)N2CCSc3ncccc32)cc1 -8.53%
COc1ccc(OC)c(CNC(=O)Cn2nc(C)c3nn(-c4ccc(Cl)cc4)c(C)c3c2=O)c1 1.21%
COc1ccc2oc(=O)c(-c3cn4c(n3)sc3cc(OC)ccc34)cc2c1 -0.733%
CCc1ccccc1NC(=O)Nc1nnc(N(C)Cc2ccccc2)s1 4.62%
Clc1ccc(N2CCN(c3ncnc4c3cnn4-c3ccccc3)CC2)cc1Cl -0.214%
COc1ccc(NC(=O)c2cc(S(=O)(=O)N3CCCCCC3)cn2C)cc1Cl 6.95%
COc1cccc(Cn2c(CNC(=O)Cc3cccc(C)c3)nc3cccnc32)c1 1.5%
COc1ccccc1-c1nc2c(c(SCC(=O)Nc3ccc(C)c(C)c3)n1)Cc1c(CO)cnc(C)c1O2 -5.64%
Cc1ccccc1NC(=O)Cn1c(=O)oc2cc(Br)ccc21 -10.2%
Cc1ccc(NC(=O)c2cccc3c2C(=O)N(C2CCCCC2)C3)c(C)c1 -4.71%
COc1ccc(N(CC(=O)Nc2cccc(Cl)c2C)S(=O)(=O)c2c(C)nn(C)c2C)cc1 0.315%
COc1ccc(C2=C(C)C(=NCCCN3CCN(c4cc(C)ccc4C)CC3)NS2(=O)=O)cc1 -3.82%
Cc1c(C)n(C)c2ccc(C(=O)NCCCN3CCCCC3C)cc12 (stereo unspecified) 1.3%
O=C(c1cc2c(s1)-c1ccccc1OC2)N1CCN(c2ccccc2F)CC1 -8.05%
Cc1ccc(C)c(NC(=O)Cn2cc(C(=O)c3ccco3)c3ccccc32)c1 -29.9%
CCCCN(CC)CCCNC(=O)c1nn(C)c2c1CS(=O)(=O)c1ccccc1-2 -0.984%
CCc1c(C)sc(NC(=O)c2cc(-c3cccc(Cl)c3)on2)c1C#N -0.847%
CCOC(=O)C1CCCN(c2cc(C)nc3c(-c4ccccc4OC)c(C)nn23)C1 (stereo unspecified) -8.68%
CCCCCOc1c(Cl)cc(C(=O)N(Cc2ccc(C)o2)C2CCS(=O)(=O)C2)cc1Cl (stereo unspecified) 1.44%
CCCN(CCC)CCCNC(=O)C1CCN(S(=O)(=O)CC)CC1 2.84%
COc1ccc(C)c2sc(N(Cc3cccnc3)C(=O)C3CCCCC3)nc12 -2.6%
CCOC(=O)c1ccc(N2C(=O)c3n[nH]c(-c4ccco4)c3C2c2ccc(O)cc2)cc1 (stereo unspecified) -1.72%
COc1ccc(C)cc1NC(=O)c1c(C)oc2ncn(CC(C)C)c(=O)c12 5.21%
CCCn1cc(S(=O)(=O)c2ccccc2)c(=O)c2cc(F)c(N3CCCC(C)C3)cc21 (stereo unspecified) 1.1%
Cc1ccc(S(=O)(=O)CC(=O)Nc2sc3c(c2C#N)CCCC3)cc1 -16.4%
CCn1cc(CCC(=O)NCc2ccccc2OC)c2ccccc21 -10.4%
Cc1ccc(CSCC(=O)N2CCN(c3ccccc3F)CC2)cc1 11.2%
CCOC(=O)Cn1c(=O)n(C2CCCCC2)c2nc(-c3cccc(F)c3)nc(C(N)=O)c21 0.184%
CC1=C(C(=O)Nc2ccccc2)C(c2cccnc2)n2nc(SCc3ccccc3Cl)nc2N1 (stereo unspecified) 11.2%
Cc1ccc(S(=O)(=O)c2cc3cc(C(=O)O)ccc3oc2=O)cc1 -6.1%
CCOC(=O)c1c(NC(=O)COc2cc(C)ccc2C(C)C)sc(C)c1C -3.99%
CCOc1cccc(C(c2c(C)n(C)n(-c3ccccc3)c2=O)c2c(C)n(C)n(-c3ccccc3)c2=O)c1OC -0.595%
CCOc1ccc(NC(=O)c2nn(C)c3c2CS(=O)(=O)c2ccccc2-3)cc1 4.75%
CCOc1ccccc1NC(=O)Cn1c(=O)n(-c2ccc(F)cc2)c(=O)c2sc3ccccc3c21 3.11%
O=C(Nc1cccc(OCc2cc(=O)n3c4c(sc3n2)CCCC4)c1)c1ccc(F)cc1 -5.5%
Cc1ccccc1-c1noc(CCC(=O)Nc2cccc(C)c2C)n1 -9.35%
Cc1ccc2nc(-c3cc(NC(=O)/C=C/c4ccccc4)ccc3Cl)oc2c1 7.96%
COc1cc(Cl)c(C)cc1NC(=O)c1cn(C2CCCC2)c(=O)c2c1c1ccccc1n2C -21%
COc1ccc(C(=O)Nc2ccc3nc(N4CCC(C)CC4)cc(C)c3c2)cc1 -7.55%
O=C(c1cccc(Cl)c1)N1CCN(CCc2ccncc2)CC1 -9.64%
CCOc1ccc(-c2nnc(SCC(=O)NCCc3ccc(OC)c(OC)c3)nc2-c2ccc(OCC)cc2)cc1 -1.95%
CCOCCCNC(=O)C(Cc1ccccc1)NS(=O)(=O)c1ccc2c(c1)c(=O)n(C)c(=O)n2C (stereo unspecified) -13.5%

Source: PubChem BioAssay AID493208 (National Center for Advancing Translational Sciences (NCATS), 2011)
